In PubChem BioAssay (NCI) one finds TGI and GI50 data, which are given here for six molecules.

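Where inhibition never reached the appropriate level, the endpoint shown equals the highest concentration tested. Otherwise, values were interpolated linearly from a five-concentration, 48-hour dose response in 96-well plates. Here, GI50 denotes the concentration required for 50% inhibition of growth.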 For part of its entries the source gives two or more results. This is not the full list of results. An entry can have further records. The tests behind the records often covered other concentration ranges, which the source does not state; some values may only mark the edge of a range.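 TGI: total growth inhibition.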

Among the test systems are A498 renal; SNB-75 CNS; M14 melanoma; MDA-MB-231 breast; IGROV1 ovarian; KM12 colon; HT29 colon; HCT-15 colon; HS 578T breast; RPMI-8226 leukemia; COLO 205 colon; NCI/ADR-RES ovarian; 786-0 renal; DU-145 prostate; K-562 leukemia; NCI-H522 lung; UACC-62 melanoma; SF-268 CNS; MCF7 breast; SK-MEL-5 melanoma; SK-MEL-2 melanoma; LOX IMVI melanoma; CCRF-CEM leukemia; MOLT-4 leukemia; MDA-MB-435; OVCAR-3 ovarian; SK-OV-3 ovarian; BT-549 breast; HCC-2998 colon; SW-620 colon; OVCAR-5 ovarian; OVCAR-8 ovarian; SK-MEL-28 melanoma; SNB-19 CNS; KM20L2 colon; SF-295 CNS; NCI-H226 lung; RXF 393 renal.

Common to all, as to experiment: NCI tumour cell line growth inhibition, 48 h

`CC(=O)OC12CC(C)C3(O)C4C=C(C)C(=O)[C@@]4(O)CC(CO)=C[C@H]3C1C2(C)C` (some centres not stated): in the assay with A498 renal, the TGI was 8.78 µM and 378 µM.

For `COc1ccc(-c2nc3sc4c(c3c(=O)[nH]2)CCCC4)c2ccccc12`, the GI50 in the assay on SNB-75 CNS is 221 nM and 20.6 nM; in the assay with M14 melanoma, 239 nM and 20.4 nM; in the assay on MDA-MB-231 breast, 586 nM and 41.8 nM; in the assay with IGROV1 ovarian, 1.86 µM and 50 nM; in the assay on KM12 colon, 396 nM and 26.7 nM; in the assay on HT29 colon, 362 nM and 27.2 nM. Moreover, the GI50 with HCT-15 colon was 466 nM and 30.9 nM; in the assay on HS 578T breast, 437 nM and 15.8 nM; with RPMI-8226 leukemia, 388 nM and 37.8 nM; in the assay on COLO 205 colon, 245 nM and 22.6 nM; in the assay on NCI/ADR-RES ovarian, 340 nM and 11 nM; with 786-0 renal, 450 nM and 43.9 nM. For the same molecule, the GI50 was 446 nM and 40.4 nM in the assay on DU-145 prostate; 327 nM and < 10 nM with K-562 leukemia; 300 nM and < 10 nM with NCI-H522 lung; 440 nM and < 10 nM in the assay on UACC-62 melanoma; 884 nM and 50.3 nM in the assay on SF-268 CNS; 1.05 µM and 35.1 nM with MCF7 breast. Moreover, the GI50 is 372 nM and 34.9 nM in the assay on SK-MEL-5 melanoma; 343 nM and 19.2 nM in the assay on SK-MEL-2 melanoma; 606 nM and 48.1 nM with LOX IMVI melanoma; 353 nM and 30.7 nM with CCRF-CEM leukemia; 408 nM and 36.2 nM with MOLT-4 leukemia; 185 nM and < 10 nM in the assay with A498 renal. Also, the GI50 is 154 nM and < 10 nM with MDA-MB-435; 289 nM and 16.7 nM in the assay on OVCAR-3 ovarian; 420 nM and 38.8 nM in the assay on SK-OV-3 ovarian; 811 nM and 36.1 nM with BT-549 breast; 1.09 µM and 36.2 nM with HCC-2998 colon; 378 nM and 34.6 nM in the assay with SW-620 colon. Also, the TGI with HT29 colon is 2.22 µM and 74.6 nM; with COLO 205 colon, 676 nM and 55.4 nM; with SK-MEL-2 melanoma it was 2.04 µM and 79.5 nM; in the assay on MDA-MB-435 it was 331 nM and 12.2 nM; with OVCAR-3 ovarian it was 785 nM and 52.6 nM.

On to `CN(C)CC(NC(NCS)C(=O)NCCNc1ccc(NCCNC(=O)C(NCS)NC(CN(C)C)OCCl)c2c1C(=O)c1c(O)ccc(O)c1C2=O)OCCl` (configuration not stated), for which the TGI in the assay with M14 melanoma was 1.63 µM and > 100 µM; in the assay on OVCAR-5 ovarian, 4.33 µM and > 100 µM; in the assay on OVCAR-8 ovarian it was 142 nM and 1.5 µM; with OVCAR-3 ovarian, 1.99 µM and > 100 µM; in the assay on SK-MEL-28 melanoma, 1.56 µM and > 100 µM.

Consider `COc1ccc(C2=CN3CCC[C@H]3C=C2c2cc(O)c(OC)c(OC)c2)cc1OC`, for which the TGI with HCT-15 colon was 98.9 nM and 10.6 µM; in the assay on 786-0 renal it was 193 nM and 18.9 nM; in the assay with SNB-19 CNS, 45.3 nM and 10.2 µM; in the assay on KM20L2 colon, 93.2 nM and 1.02 µM.

Turning to `CO/C(=N\N=C\c1cccc(C(F)(F)F)c1)c1ccncc1`, the TGI in the assay with NCI/ADR-RES ovarian is 4.83 µM and 52.2 µM; in the assay on SF-295 CNS, 4.76 µM and 48.2 µM.

As to `Cc1cc(NC(=O)NC(=O)c2ccccc2NC(=O)CN)ccc1Oc1ncc(Br)cn1`, the TGI in the assay on M14 melanoma was 15.1 µM and 1.02 µM; in the assay on HT29 colon, 5.58 µM and > 100 µM; in the assay with NCI-H226 lung, 32.7 µM and 2.89 µM; in the assay on K-562 leukemia, 43.4 µM and 1.08 µM; in the assay with CCRF-CEM leukemia, 50.4 µM and 648 nM; with A498 renal, 3.48 µM and 99.2 nM. The TGI in the assay with RXF 393 renal is 2.42 µM and 51.5 nM; in the assay with OVCAR-3 ovarian it was 2.86 µM and 73.4 nM; in the assay on SF-295 CNS it was 1.51 µM and 29.9 µM. For the same molecule, the GI50 in the assay on SK-OV-3 ovarian was 29.8 nM [1 test] and 572 nM [mean of 2 tests].
